Results reported in the BET-seq Pho4 binding data (Le et al. 2018).
The list shows a part of the results. These are noisy estimates, calculated here from bound and input reads.

Biological target: T1, Pho4 (S. cerevisiae) (UniProt P07270)
T1 sequence: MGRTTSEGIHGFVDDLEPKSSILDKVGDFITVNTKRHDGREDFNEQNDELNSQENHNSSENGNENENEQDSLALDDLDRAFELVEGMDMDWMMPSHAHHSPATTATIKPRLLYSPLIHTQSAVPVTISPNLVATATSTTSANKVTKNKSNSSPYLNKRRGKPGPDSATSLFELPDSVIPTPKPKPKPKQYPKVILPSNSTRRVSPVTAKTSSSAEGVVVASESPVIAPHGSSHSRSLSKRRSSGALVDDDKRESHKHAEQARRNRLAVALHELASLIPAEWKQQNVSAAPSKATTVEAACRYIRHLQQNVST
Experiment: relative binding free energy (BET-seq); higher = weaker binding
Conditions: reference: library average

Row | Sequence | relative binding free energy [kcal/mol]
1 | ACTGTCACGTGAGGTT | 0.27
2 | TTCTCCACGTGTTTAG | 0.17
3 | GGTCTCACGTGAGTGA | 0.2
4 | AAGTACACGTGAGGTT | 0.35
5 | TTGGGCACGTGGGTCG | -0.11
6 | GCTGTCACGTGGTATG | -0.03
7 | AATTTCACGTGCGGGC | 0.21
8 | GTGCACACGTGTGGGA | 0.12
9 | TGTGTCACGTGCAGAA | 0
10 | TTAGCCACGTGTTAGG | -0.1
11 | GTAGTCACGTGCGGGG | 0.11
12 | CGGTACACGTGTGCGG | -0.09
13 | GCTAGCACGTGTAGTT | 0.17
14 | TGTTGCACGTGTGCGC | -0.01
15 | TAAGTCACGTGTGGAA | 0.18
16 | TGTTACACGTGCAGGT | 0.04
17 | CTGGTCACGTGTCTTG | 0.21
18 | TGCCGCACGTGTGTTG | -0.07
19 | TGTCTCACGTGGCTGG | 0.18
20 | TTTTTCACGTGCACGC | 0.46
21 | TCAATCACGTGGATGG | 0.14

Row | Sequence | relative binding free energy [kcal/mol]
22 | GTTGTCACGTGAGGTT | 0.35
23 | TAGTGCACGTGTTAAT | 0.01
24 | AGTGGCACGTGTTGCC | 0.01
25 | TTAGGCACGTGAGTGT | 0.15
26 | TGTATCACGTGGTTAC | 0.11
27 | GTAATCACGTGTGCTT | 0.07
28 | TGGTGCACGTGTGAAT | 0.15
29 | GTAAACACGTGTGTTT | 0.1
30 | CTGGGCACGTGGTTTA | -0.01
31 | TGGAGCACGTGTTGCT | -0.08
32 | GGGTGCACGTGGAGTT | 0.16
33 | CTATACACGTGGGGGT | -0.03
34 | GCATACACGTGGTTTG | 0.05
35 | CATGTCACGTGTGGGC | 0.13
36 | GTAGGCACGTGGTCGT | -0.09
37 | GATCGCACGTGAGAGG | 0.28
38 | AGGGGCACGTGTTTAA | -0.16
39 | GCGCGCACGTGGTGTA | -0.19
40 | TGATGCACGTGGTGCG | -0.08
41 | TGGTTCACGTGTGGCT | 0.21
42 | TTATGCACGTGGTCTA | -0.3

Row | Sequence | relative binding free energy [kcal/mol]
43 | TTGGGCACGTGTTACA | -0.08
44 | TGTTGCACGTGGTATC | 0.05
45 | TGTAGCACGTGAATTT | 0.17
46 | TTGGTCACGTGTCAGT | 0.11
47 | GTATTCACGTGGGGAA | 0.16
48 | TTTAACACGTGATTGA | 0.06
49 | GATGTCACGTGATGAG | 0.31
50 | TGGTCCACGTGCTTTT | -0.02
51 | GCGGGCACGTGTGTAT | -0.06
52 | AAGTTCACGTGTCGGG | 0.52
53 | GTTACCACGTGAAGGT | 0.24
54 | GGTGGCACGTGTGCTT | 0.01
55 | GATGGCACGTGTCGAG | 0.03
56 | TTAGCCACGTGAGTTG | 0.06
57 | GTGTCCACGTGTCGTT | 0.19
58 | AGGCGCACGTGTGGAG | 0
59 | TGGGGCACGTGATAGC | -0.01
60 | ATGCTCACGTGATTTA | 0.28
61 | AGAGTCACGTGCGAGA | 0.28
62 | GGACTCACGTGTAAGG | 0.33
63 | TCGGGCACGTGTTGAT | -0.1
